Data taken from PubChem BioAssay AID2546 (National Center for Advancing Translational Sciences (NCATS), 2010).
About 11,000 (3.5%) of roughly 310,000 compounds were called active. This list was built around the results that the source calls inconclusive (neither active nor inactive); the mix of calls is not that of the screen. Calls come from the whole dose curve; as a rule, active = well fitted inhibition curve with a large enough effect; inconclusive = small, poorly fitted or top-dose-only effect, or effect the other way; inactive = flat fitted curve, though single readings scatter. Potencies of inconclusive entries are left out as doubtful fits. Some structures have more than one record in an assay (separate samples or runs), and their calls can disagree.

Experiment: VP16 counterscreen qHTS for inhibitors of ROR gamma transcriptional activity;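 note: Gal4-VP16 expression switched on by copper sulfate through the metallothionein promoter; nearly all actives have a fitted effect of over 50% in size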
Conditions: Drosophila S2 Gal4-VP16 UAS-luciferase, luminescence, 20 h; series mostly up to 53.6 µM
Potency is the fitted concentration of half-maximal effect; tags give direction and shape of the fitted curve.

Compound | Potency
COc1ccc(C(=O)Nc2ccccc2C(=O)NC(Cc2ccc(O)cc2)C(=O)NNC(=O)c2ccccc2Cl)cc1 (centres undefined) | inconclusive [inhibitor, partial curve]
CCCCc1n[nH]c(=S)n1Cc1ccc(Cl)cc1 | active: 7.08 µM
Clc1ccc2c(N/N=C/c3cccnc3)ccnc2c1 | inconclusive [inhibitor, single point]
CCn1c(C(C#N)/C(=N\S(=O)(=O)c2cccs2)c2ccccc2)nc2ccccc21 (centres undefined) | inconclusive [inhibitor, single point]
CCOc1ccc(NC(=O)C2CCCN(S(=O)(=O)c3cccc4nsnc34)C2)cc1 (centres undefined) | inactive
O=[N+]([O-])c1cccc(-c2nnc3cccc(Cl)n23)c1 | inactive
Cc1nc(SCC(=O)c2cc3ccccc3oc2=O)c(C#N)c(-c2ccccc2)c1C(=O)Nc1ccccc1 | inconclusive [inhibitor, partial curve]
COc1cc2c(cc1OC)CN(Cc1ccc(OC)c(C)c1OC)CC2 | inactive
CCC(C(=O)NC1CC1)n1nc(C)c2c(C)n(-c3ccc(C)cc3)nc2c1=O (centres undefined) | inactive
CSc1ccc(C(=O)C2CCCN(C(=O)c3ccc4c(c3)no[n+]4[O-])C2)cc1 (centres undefined) | inconclusive [inhibitor, single point]
CCOc1ccc(/C=N/NC(=O)c2cc3c(OC)cccc3[nH]2)cc1 | inconclusive [inhibitor, single point]
Cn1cc(-c2nnc(-c3ccccc3)o2)c2ccccc21 | inconclusive [inhibitor, partial curve, poor fit]
Cc1ccc(C(=O)COC(=O)c2ccc(-c3cnc4ccccc4n3)cc2)cc1C | inactive
O=C(NC(=S)NCc1ccccc1)c1ccccc1Br | active: 10 µM
O=C(c1cccnc1Cl)N(Cc1ccccc1)Cc1ccccc1 | inconclusive [activator, partial curve]
Cc1ccc(N2CCN(C(=S)c3ccc(N(C)C)cc3)CC2)cc1 | inconclusive [activator, partial curve]
O=C(Oc1ccc(OC(=O)C2CCC2)cc1)C1CCC1 | active: 22.4 µM
CCCCN1C(=O)C2(NNc3ccccc3O2)c2ccccc21 (centres undefined) | inconclusive [inhibitor, single point]
O=C(COC(=O)c1ccccc1C(=O)c1ccc(Cl)c([N+](=O)[O-])c1)NC1CCCCCC1 | inconclusive [inhibitor, partial curve]
COc1cccc2cc(C(=O)Nc3ccc(S(=O)(=O)NCC4CCCO4)cc3)c(=O)oc12 (centres undefined) | inactive
Cc1cc(C(=O)COc2cccnc2[N+](=O)[O-])c(C)n1Cc1ccco1 | inconclusive [activator, single point]
C#CCn1c(=NC(=O)c2ccccc2[N+](=O)[O-])sc2cc(S(C)(=O)=O)ccc21 | inconclusive [inhibitor, partial curve]
CCc1ccc(NC(=O)Nc2cccc(OC)c2)cc1 | inconclusive [activator, full curve]
CC(=O)N1CC(c2ccccc2)C(c2ccc(Cl)cc2)=N1 (centres undefined) | inconclusive [activator, single point]
CCOC(=O)COc1c(OC)cc(Cl)cc1C1Nc2ccccc2C(=O)N1c1ccc(F)cc1 (centres undefined) | inconclusive [inhibitor, single point]

Compound | Potency
CCCn1c(C(C)Nc2nc(-c3ccc(C)cc3)cs2)nc2cc(Cl)c(N3CCCCC3)cc21 (centres undefined) | inactive
COc1ccc(C(=O)/C(=C/O)N=Nc2ccc(F)cc2)cc1 | inconclusive [inhibitor, single point]
Cc1ccccc1OCCn1c(=S)[nH]c2ccccc21 | active: 4.47 µM
COc1ccc(N2CCN(S(=O)(=O)c3ccc4c(c3)CCCC4)CC2)c([N+](=O)[O-])c1 | inconclusive [inhibitor, single point]
CCOC(=O)C1(Cc2cccc(F)c2)CCN(C(=O)C2CCCO2)CC1 (centres undefined) | inconclusive [inhibitor, single point]
C/C(=N\NC(=O)C(=O)Nc1ccc(C)c(Cl)c1)c1ccncc1 | inconclusive [inhibitor, full curve]
FC(F)Sc1ccc(NC(=S)NC2CCCC2)cc1 | inconclusive [inhibitor, single point]
COc1ccc(NC(=O)CO/N=C(\C)c2cccs2)cc1 | inconclusive [activator, single point]
Cc1ccc(NCCC(=O)c2cccs2)cc1C | inactive
CC(=O)N1CCN(c2ccc(Oc3ccc([N+](=O)[O-])c(C(F)(F)F)c3)cc2)CC1 | active: 7.08 µM
COc1ccc(/C=C/c2noc(-c3ccccc3O)n2)cc1 | inconclusive [activator, single point]
COc1ccc(OC)c(C2=NS(=O)(=O)N(C)C(C(=O)Nc3cccc(C(C)=O)c3)=C2)c1 | inconclusive [inhibitor, single point]
Cc1ccc(O)c(NC(=O)c2cccc(S(=O)(=O)N3CCCCC3)c2)c1 | inconclusive [activator, single point]
Cc1c(NC(=O)/C=C/c2cn(-c3ccccc3)nc2-c2ccc(F)cc2)c(=O)n(-c2ccccc2)n1C | inactive
Cc1cc(C(=O)NCCc2ccccc2)ccc1[N+](=O)[O-] | inconclusive [activator, full curve, poor fit]
CCOC(=O)C1(S(=O)(=O)c2ccccc2)CCN(Cc2ccc(Cl)cc2)CC1 | inconclusive [inhibitor, single point]
CN1C(=O)CS(=O)c2ccc(C(=O)NCCC3=CCCCC3)cc21 (centres undefined) | inconclusive [inhibitor, single point]
COC(=O)N/N=C/c1cn(CCOc2ccc(OC)cc2)c2ccccc12 | inactive
CC1=NN(c2ccccc2)C(=O)C1C(=O)c1ccccc1 (centres undefined) | inconclusive [inhibitor, single point]
Cc1ccc(-c2ccc(/C=N/O)o2)cc1[N+](=O)[O-] | inconclusive [inhibitor, single point]
CCc1nnc(N/N=C/c2cc(Br)c(O)cc2O)n1N | active: 11.2 µM
CCOc1ccc(CN(C)C(=O)c2ccc3ccccc3n2)cc1 | inactive
COc1ccc(CC(=O)Nc2nc(C)cs2)cc1OC | inconclusive [inhibitor, single point]
CCOC(=O)c1cc(OCC(=O)NC(C)C(C)C)cc(C(=O)OCC)c1 (centres undefined) | inactive
O=C(c1ccccc1F)N1CCN(c2cnn(-c3cccc(Cl)c3)c(=O)c2Cl)CC1 | inconclusive [inhibitor, single point]

Compound | Potency
CC(C)c1onc(-c2c(Cl)cccc2Cl)c1COc1ccc(/C=C/c2cccc(C(=O)O)c2)c(Cl)c1 | active: 5.62 µM
Cc1ccc(C(=O)CSc2nc3ccccc3c(=O)n2N)o1 | inconclusive [inhibitor, single point]
NC(=S)NNc1cccc(Cl)c1 | active: 15.8 µM
O=C(CCn1[nH]c(=O)c2ccccc2c1=O)OC1CCCCC1 | active: 22.4 µM
CC1CCCN(c2ccc(C(=O)OCn3nnc4ccccc4c3=O)cc2[N+](=O)[O-])C1 (centres undefined) | inactive
O=C(N/N=C/c1ccc(OC(=O)c2cccs2)cc1)c1cccc(F)c1 | inactive
Cc1ccc(S(=O)(=O)N2CCC(=O)N(CCOCc3ccccc3)CC2)cc1 | inactive
O=C(CCCn1c(=O)c2sccc2n(CC(=O)OCc2ccccc2)c1=O)NCc1ccco1 | inactive
Clc1ccc(OCc2cc(-c3ccccc3)no2)c(Cl)c1 | inconclusive [inhibitor, partial curve, poor fit]
CCC(C)(C)C1CCC2(CC1)NC(=O)N(CC(=O)Nc1nc(-c3ccc(C)cc3)cs1)C2=O (centres undefined) | inactive
O=C(CCN1CCCCC1)c1ccc2c(c1)OCO2 | active: 12.6 µM
CCC(=O)Nc1ccc(/C(C)=N\NS(=O)(=O)c2ccc(C)cc2)cc1 | inconclusive [inhibitor, single point]
N=c1n(CCN2CCOCC2)c2ccccc2n1CC(=O)c1cccc([N+](=O)[O-])c1 | inactive
O=c1c2ccccc2sn1-c1ccccc1 | active: 2.82 µM
O=S(=O)(c1ccc(Cl)cc1)N1CCN=C1SCc1cccc(Cl)c1 | inactive
Oc1ccc(-c2[nH]ncc2-c2cccc3cccnc23)c(O)c1 | inconclusive [inhibitor, single point]
O=c1c2ccccc2[nH]c(=S)n1C1CCCCC1 | active: 2.82 µM
COc1ccc(NC(=O)CC2C(=O)N(c3ccc(OC)cc3)C(=S)N2NC(=O)c2cccc(F)c2)cc1 (centres undefined) | inconclusive [inhibitor, single point]
Cc1[nH]nc(Nc2ccc(C(C)C)cc2)c1[N+](=O)[O-] | inconclusive [inhibitor, partial curve, poor fit]
C/C(=N\NC(N)=S)C1(C)CCCCC1 | active: 8.91 µM
CC1CCc2c(sc3nc(C(C)(C)C)nc(N4CCN(C(=O)CCl)CC4)c23)C1 (centres undefined) | active: 12.6 µM
CC(C)(C)OC(=O)C1=NOC2(C=CC(=O)C=C2)C1 | active: 12.6 µM
COc1ccc(CCNS(=O)(=O)c2cc(C(=O)O)c(Cl)cc2Cl)cc1 | inactive
COc1cc(C(=O)NCC2CCCO2)cc(OC)c1OC (centres undefined) | inactive
